Experimental data: article PMC6919601, “Identification of Plasmodium dipeptidyl aminopeptidase allosteric inhibitors by high throughput screening” (PLoS ONE, 2019)
The campaign covered roughly 110,000 compounds. About 230 (0.21%) showed an effect of 50% or more. Some of the results follow.

biological target: DPAP1 (Plasmodium falciparum, UniProt Q8IIJ9); assay: primary screen, percent inhibition; read by cleavage of a fluorogenic dipeptide substrate; higher = more effect of the substance; set-up: species or system P. falciparum D10 trophozoite lysates; single well
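Note: 30 min substrate incubation versus DMSO and 10 µM JCP410 controls.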

Sequence of DPAP1 (Q8IIJ9 whole entry, looked up): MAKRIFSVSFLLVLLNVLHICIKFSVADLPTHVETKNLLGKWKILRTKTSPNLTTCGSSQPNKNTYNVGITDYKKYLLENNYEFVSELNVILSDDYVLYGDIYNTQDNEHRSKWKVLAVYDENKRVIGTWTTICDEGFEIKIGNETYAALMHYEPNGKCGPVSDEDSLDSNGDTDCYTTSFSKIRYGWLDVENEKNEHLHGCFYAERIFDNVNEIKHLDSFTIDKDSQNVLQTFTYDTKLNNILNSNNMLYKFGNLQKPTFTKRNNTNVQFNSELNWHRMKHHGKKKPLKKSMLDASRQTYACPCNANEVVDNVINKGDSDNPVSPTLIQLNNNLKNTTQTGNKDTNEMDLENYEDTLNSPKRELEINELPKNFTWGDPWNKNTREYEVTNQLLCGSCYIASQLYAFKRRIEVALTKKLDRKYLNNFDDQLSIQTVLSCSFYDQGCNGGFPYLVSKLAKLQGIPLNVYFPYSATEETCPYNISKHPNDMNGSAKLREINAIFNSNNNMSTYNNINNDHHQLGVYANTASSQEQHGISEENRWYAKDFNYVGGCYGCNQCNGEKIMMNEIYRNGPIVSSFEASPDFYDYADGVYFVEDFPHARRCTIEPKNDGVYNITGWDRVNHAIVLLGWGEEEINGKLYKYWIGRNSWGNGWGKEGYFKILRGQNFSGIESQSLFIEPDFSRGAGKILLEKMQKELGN

SMILES	% Inhibition @ 10 uM [%]
Cc1ccsc1CN1CC(C)OC(C)C1 (stereo not drawn)	6.53
C=C1C(C(=O)N2CCN(Cc3ccccc3)CC2)C1C(=O)N1CCN(Cc2ccccc2)CC1 (stereo not drawn)	-7.43
Cc1cc(C)c(S(=O)(=O)N2CCC(C(=O)Nc3ccc(F)cc3F)CC2)c(C)c1	7.67
N#CC1=C(N)N(c2nc[nH]n2)C2=C(C(=O)CCC2)C1c1ccc(F)cc1 (stereo not drawn)	-1.98
Clc1ccc(C2Oc3ccccc3C3=C2C(c2cccs2)n2ncnc2N3)cc1 (stereo not drawn)	0.0842
COc1ccc(C(=O)Cc2ccccc2)cc1F	-0.233
CC(C)(C)c1ccc(OCC(=O)Nc2ccc3c4c(cccc24)C(=O)NC3=O)cc1	-3.37
O=C(Cn1ncc2c(=O)oc3ccccc3c21)NC1CCN(Cc2ccccc2)CC1	-4.69
Cc1ccc(Cn2nnc3c(=O)n(Cc4cccc(Cl)c4)cnc32)cc1	-0.431
Clc1ccc(-c2ncnn2-c2ccccc2Cl)cc1	-3.4
CC(C)(C)c1ccc(S(=O)(=O)NCc2ccc(C(=O)N3CCOCC3)cc2)cc1	0.161
COCCNC(=O)C1CCN(C(=O)c2cnn(-c3ccccc3)c2-n2cccc2)CC1	3.4
Cc1cccc(NC(=O)C(C)Oc2ccccc2)n1 (stereo not drawn)	4.11
COc1ccc(OCc2nc3c4c(C)c(C)oc4ncn3n2)cc1	-2.81
CC(CCc1ccccc1)NC(=O)Cn1ncc2ccsc2c1=O (stereo not drawn)	-4.92
CCc1ccc2oc(-c3ccc(N)cc3)nc2c1	4.61
Cc1cccc(-c2nnc(C3CCNCC3)o2)c1	9.95
Fc1ccc(OCCCN2CCCCC2)cc1	8.26
O=C1CC(N2CCCCCC2)C(=O)N1c1ccc(N2C(=O)CC(N3CCCCCC3)C2=O)cc1 (stereo not drawn)	1.72
CN(C)CCC(C)(O)Cc1ccccc1 (stereo not drawn)	-0.864
COc1ccc(-c2csc(N3N=C(c4ccc(F)cc4)CC3c3ccc(C(C)C)cc3)n2)cc1F (stereo not drawn)	-1.15
CCOc1ccc(C2C(C#N)=C(N)Oc3[nH]nc(C)c32)cc1OCC (stereo not drawn)	-4.33
CC12C=CC(C)(O1)C1C(=O)N(c3ccccc3C#N)C(=O)C12 (stereo not drawn)	0.983
CCOc1ccc2nc(N3CCC(C(=O)Nc4cc(-c5cccc(F)c5)[nH]n4)CC3)sc2c1	-3.35

SMILES	% Inhibition @ 10 uM [%]
COc1ccccc1CNC(=O)C1CCCN(S(C)(=O)=O)C1 (stereo not drawn)	-1.21
COc1ccccc1/N=C1\SC(CC(=O)Nc2ccc(C(C)C)cc2)C(=O)N1C (stereo not drawn)	16.3
Cc1ncsc1CCOC(=O)Nc1ccccc1F	5.4
O=C(NCC1CCCO1)c1ccc(Cn2c(SCc3ccc(F)cc3)nc3ccncc32)cc1 (stereo not drawn)	1.41
CCOc1ccc(C2C3=C(O)CC(C)(C)CC3=NC(C)=C2C(=O)Nc2cc(C)ccn2)cc1 (stereo not drawn)	-3.9
Brc1csc(CN2CCN(c3ccccc3)CC2)c1	4.73
CC(C)CC(NC(=O)c1ccc(N2CCN(C)CC2)cc1)C(=O)NCC#N (stereo not drawn)	-7.36
O=C(C1CCCN(S(=O)(=O)c2cccc3nsnc23)C1)N1CCN(c2ncccn2)CC1 (stereo not drawn)	-2.52
CCNS(=O)(=O)c1ccc(OC)c(C(=O)NC2CCCCC2)c1	-9.07
C=CCN1C(=O)/C(=C\c2ccccc2C(=O)O)SC1=S	1.27
O=C(NCc1ccc(F)cc1)C1CC(=O)N(C2CCCCCC2)C1 (stereo not drawn)	-2.99
O=C(Cn1ccc2ccccc2c1=O)NCC(=O)NC1CCCCCC1	-0.972
O=C1NC(=O)/C(=C/c2ccc(-c3ccc(O)c(C(=O)O)c3)o2)S1	64.8
Cc1nc2ncnn2c(C)c1CCC(=O)N1CCN(c2ccccn2)CC1	1.26
COc1ccc(CCNC(=O)CCCc2nnc3n(CC(C)C)c(=O)c4sccc4n23)cc1OC	-1.31
O=C1CC(c2ccsc2)c2c(-c3ccccc3)n[nH]c2N1 (stereo not drawn)	-5.36
O=C(Cn1ncc2c(=O)oc3ccccc3c21)N1CCN(C(=O)c2ccco2)CC1	-4.69
COc1cccc(NC(=O)CCCC(=O)Nc2cccc(OC)c2)c1	-4.43
CCOc1ccc(C(=O)NCCc2ccc(S(N)(=O)=O)cc2)cc1OCC	3.27
CCN(CC)C(=O)CSc1nc(-c2cccc(C)c2)nc2c1Cc1c(CO)cnc(C)c1O2	2.49
O=C(NC1CCN(Cc2ccccc2)CC1)c1ccccc1	5.06
Cc1nn(-c2cccc(Cl)c2)c(O)c1/C=N/c1ccc(C(=O)O)c(O)c1	-4.76
O=C(NC1(C(F)(F)F)NC(=O)N(CCc2ccccc2)C1=O)c1ccco1 (stereo not drawn)	-0.891
CC1CN(Cc2nc3c(c(=O)n(C)c(=O)n3C)n2Cc2cccc(Cl)c2)CC(C)O1 (stereo not drawn)	-4.14
